# From PubChem BioAssay AID504832 (National Center for Advancing Translational Sciences (NCATS), 2011)
# Among all 310,000 compounds or so, about 18,000 (5.8%) were called active. This list was built around the results that the source calls inconclusive (neither active nor inactive); the mix of calls is not that of the screen. The call rests on the fitted dose curve; in most records, active means well fitted inhibition curve with a large enough effect; inconclusive means small, poorly fitted or top-dose-only effect, or another doubt; inactive means no such curve, though single readings can be large or run the other way. No potency is given beside an inconclusive call; the fits are too rough.
# Assay: Primary qHTS for delayed death inhibitors of the malarial parasite plastid, 48 hour incubation
# Conditions: P. falciparum luciferase growth in erythrocytes; series mostly up to 28.7 µM; activity change, negative = inhibition: at the top concentration
# Outline: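 Luciferase-expressing parasites in RBCs, 2% Hct / 0.1% parasitemia final; RPMI 1640 + 0.5% Albumax; 37 C, 5% CO2, one generation; luminescence read-out, lower signal = inhibition.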
# On the % scale 0 is the no-effect control and ±100 the full control effect; potency means the concentration at half of the fitted maximal effect; tags describe the fitted curve by direction and shape.
Compound,Potency,"activity change, negative = inhibition"
CC1=CC(C)(C)Nc2ccc(OC(=O)C(Cc3ccccc3)N3C(=O)C4CCCCC4C3=O)cc21 (centres undefined),active: 13.1 µM,
CCOc1ccc(CCNC(=O)COC(=O)c2ccc(S(C)(=O)=O)cc2)cc1OCC,"inconclusive [inhibitor, partial curve, poor fit]",
CCCCCCCCC(=O)NCCOc1ccc(OC)cc1,"inconclusive [inhibitor, single point]",
O=C(NCc1ccccn1)c1cc(Cl)ccc1OCc1ccccc1,"inconclusive [inhibitor, single point]",
CSc1ncccc1C(=O)OCc1cccc([N+](=O)[O-])c1,,inactive: 15.4%
Cc1ccc(NC(=S)/C(=C(\[O-])c2ccc(C)c([N+](=O)[O-])c2)[n+]2ccccc2)cc1C,"inconclusive [inhibitor, single point]",
COc1cc(C(=O)OCc2cccc(S(=O)(=O)N3CCOCC3)c2)ccc1OCC(C)C,"inconclusive [inhibitor, single point]",
COc1ccc(/C=C/c2cc(C(F)(F)F)[nH]c(=O)n2)cc1OC,"inconclusive [inhibitor, partial curve, poor fit]",
COc1ccccc1NC(=O)CSc1nnc(CC(=O)Nc2ccccc2C)n1C,,inactive: -1.01%
COc1cccc(NC(=O)CCN2C(=O)c3ccccc3S2(=O)=O)c1,,inactive: 0%
CN(Cc1ccccc1)C(=O)CN1C(=O)NC2(CCCCCCC2)C1=O,active: 9.28 µM,
O=C(c1ccco1)N1CCN(Cc2ccc(F)cc2Cl)CC1,"inconclusive [inhibitor, single point]",
COC(=O)c1ccc(NC(=O)c2ccc(NC(=O)C3CCCO3)cc2)cc1 (centres undefined),"inconclusive [inhibitor, single point]",
Cc1c(N2C(=O)/C(=C\C3CC=CCC3)SC2=S)c(=O)n(-c2ccccc2)n1C (centres undefined),"inconclusive [inhibitor, partial curve, poor fit]",
CCOc1ccc(N2C(=O)/C(=C/c3ccccc3OCC(=O)OC)N(CC(=O)OC)C2=S)cc1,"inconclusive [inhibitor, single point]",
CCOC(=O)c1ccc2c(c1)n(Cc1ccccc1)c(C)[n+]2CC,"inconclusive [inhibitor, full curve]",
Cc1cc(C(=O)NC2CCCC(C)C2C)c2ccccc2n1 (centres undefined),"inconclusive [inhibitor, single point]",
O=C(NNC(=S)NCc1ccccc1)c1ccc(OC(F)F)cc1,,inactive: 6.83%
CN(CC(O)COc1c(F)cc(Br)cc1F)C1CCCCC1 (centres undefined),active: 9.28 µM,
